Publication PMC4336329 (PLoS ONE, 2015)
The campaign covered roughly 310,000 compounds. About 14,000 (4.5%) showed an effect of 50% or more. Effects have a minus sign here. Some of the results follow.

The compounds below were run against human ether-à-go-go-related gene (hERG) potassium channel (human, UniProt Q12809) (assay: primary screen, population patch clamp on CHO cells stably expressing hERG).
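Further: peak tail current of the secondary pulse compared with the same well before compound.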

human ether-à-go-go-related gene (hERG) potassium channel, sequence (Q12809 whole entry, looked up): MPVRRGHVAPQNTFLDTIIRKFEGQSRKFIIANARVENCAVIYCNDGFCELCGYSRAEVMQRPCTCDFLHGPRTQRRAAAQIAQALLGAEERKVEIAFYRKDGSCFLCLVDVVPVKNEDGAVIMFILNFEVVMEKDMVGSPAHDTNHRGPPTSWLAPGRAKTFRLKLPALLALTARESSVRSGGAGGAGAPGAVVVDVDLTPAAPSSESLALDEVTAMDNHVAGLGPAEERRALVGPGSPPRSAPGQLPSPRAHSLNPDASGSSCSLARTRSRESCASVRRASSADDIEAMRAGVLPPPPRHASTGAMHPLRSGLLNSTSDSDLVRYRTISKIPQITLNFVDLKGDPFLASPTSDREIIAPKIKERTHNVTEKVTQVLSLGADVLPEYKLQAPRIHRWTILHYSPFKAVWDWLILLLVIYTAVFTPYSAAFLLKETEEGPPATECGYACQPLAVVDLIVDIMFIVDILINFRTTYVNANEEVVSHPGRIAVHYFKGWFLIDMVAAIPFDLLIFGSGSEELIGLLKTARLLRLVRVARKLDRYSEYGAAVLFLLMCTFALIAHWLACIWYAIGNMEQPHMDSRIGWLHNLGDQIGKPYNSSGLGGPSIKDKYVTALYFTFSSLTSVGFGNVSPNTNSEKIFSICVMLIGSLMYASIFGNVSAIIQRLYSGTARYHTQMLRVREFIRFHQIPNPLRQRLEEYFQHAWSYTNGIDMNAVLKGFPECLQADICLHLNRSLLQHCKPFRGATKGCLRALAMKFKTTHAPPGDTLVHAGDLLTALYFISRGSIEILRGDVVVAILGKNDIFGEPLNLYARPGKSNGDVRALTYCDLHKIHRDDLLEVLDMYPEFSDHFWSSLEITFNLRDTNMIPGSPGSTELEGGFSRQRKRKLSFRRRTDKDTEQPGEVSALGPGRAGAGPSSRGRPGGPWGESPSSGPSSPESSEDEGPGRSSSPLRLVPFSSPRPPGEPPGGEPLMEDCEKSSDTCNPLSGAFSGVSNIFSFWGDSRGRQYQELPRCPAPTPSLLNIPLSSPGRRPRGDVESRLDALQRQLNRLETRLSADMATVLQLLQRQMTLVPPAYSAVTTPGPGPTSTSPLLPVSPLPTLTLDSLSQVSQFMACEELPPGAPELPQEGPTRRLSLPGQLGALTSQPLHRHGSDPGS

Compound | hERG current change (%, negative = inhibition) at 10uM [%]
CN(CCCN1CCOCC1)Cc1nc(-c2ccccc2)no1 | -9.02
CN1CCN(C(=O)C2=C[C@H](C3CCCCC3)C[C@H](OCc3ccc(CO)cc3)O2)CC1 | -61.7
O=C(NNc1cccc(Cl)n1)C(F)(F)F | 17.2
O=C(CCC(=O)OCc1ccc([N+](=O)[O-])cc1)Nc1ccccc1Cl | 13
Br.CC(C)(C)C(=O)Cn1c(NCCO)nc2ccccc21 | 5.72
COc1ccc(N2CCN(C(=O)c3cc4c(C)nc5ccccc5c4o3)CC2)cc1 | -47
COc1ccc(C2=C(N)c3ccccc3C2=O)cc1 | 5.02
CN1CCN(C(=O)c2ccccc2NC(=O)c2cccs2)CC1 | 2.94
O=C(N/N=C/c1ccc(C(F)(F)F)cc1)c1ccc(O)cc1 | -7.8
COC(=O)Cn1cnc2c(nnn2-c2ccc(F)cc2)c1=O | 6.52
CCCn1c(N)c(C(=O)CSc2nc(C)nc3sc(C)c(C)c23)c(=O)[nH]c1=O | 15.6
COc1ccc(NS(=O)(=O)c2ccc(N)cc2)nn1 | 17.2
O=C(c1sccc1Br)N1CCN(Cc2ccc3c(c2)OCO3)CC1 | -11
CN(C)c1nc(-c2ccccc2)nc(-c2ccc(Cl)cc2)c1C#N | 8.49
COc1ccccc1OCC(=O)NNC(=O)Nc1ccc(Cl)cc1 | 6.44
Cc1cc(=O)oc(C)c1C(=O)NCc1ccccc1 | 11.2
CCc1cc(=O)oc2c(C)c(O)c(CN3CCCCC3)cc12 | -0.833
N#Cc1c2n(c(=S)n(-c3ccccn3)c1=O)CCCCC2 | -24.2
CCOC(=O)N/N=C/c1cn(Cc2ccccc2Cl)c2ccccc12 | -1.51
CC(C)NC(=O)C1CCN(C2CCN(Cc3nc(C(C)C)cs3)CC2)CC1 | -49.5
Cc1ccc(S(=O)(=O)NC(C)C(=O)N2CCOCCOCCOCC2)cc1 (stereo not drawn) | 18.9
Nc1nc(-c2cccnc2)nn1C(=O)CCc1ccccc1 | -2.14
O=C1NCN(c2ccccc2)C12CCN(CCCC(c1ccc(F)cc1)c1ccc(F)cc1)CC2 | -75.8

Compound | hERG current change (%, negative = inhibition) at 10uM [%]
O=C1CCCN1CCCNC(=S)Nc1cccc2ccccc12 | 17.2
O=C(O)CCC1=C2c3ccccc3CCN2C(=O)CC1 | 9.77
COCCN(Cc1cc2c(C)cc(C)cc2nc1Cl)C(=O)c1ccccc1F | 44.3
O=C(CCNc1ccc(Cc2ccncc2)cc1)c1ccc([N+](=O)[O-])cc1 | -56.8
COC(=O)NNC(=S)Nc1cc(OC)ccc1OC | 0.464
COc1ccc(C(=O)N2CCc3ccccc32)cc1S(=O)(=O)N1CCOCC1 | -26.5
Cc1cccc(Cc2nnc(CCC(=O)N3CCCCC3c3nccs3)o2)c1 (stereo not drawn) | -7.23
N#CC1(c2ccccc2)CCC(=O)N1Cc1ccccc1 (stereo not drawn) | 13.7
CC(=O)c1sc(NC(=O)c2oc3ccc(F)cc3c2C)nc1C | 0.318
O=C(Nc1ccc2nc(C3CC3)n(Cc3ccccc3)c(=O)c2c1)C1CC1 | -6.15
CCOC(=O)CNC(=O)CN1C(=O)CCSc2ccccc21 | 10.2
CC(=O)Oc1ccc2cc(-c3ccccc3)c(=O)oc2c1 | 21
Cc1ccc(C(=O)Nc2cccc3ncccc23)cc1[N+](=O)[O-] | -9.03
CC(=O)N1c2ccc(S(=O)(=O)NCCC(=O)Nc3ncccc3C)cc2CC1C (stereo not drawn) | 6.75
COc1ccc(C(OC(=O)c2ccco2)C(=O)NC2CCCCC2)cc1OC (stereo not drawn) | 19.8
CC1CC(C)CN(C(=O)COC(=O)CCc2nc3ccccc3c(=O)[nH]2)C1 (stereo not drawn) | 3.75
O=C(NC1CCCCC1)C(c1ccc(O)c(O)c1)N(C(=O)Cn1nnc2ccccc21)c1cccc(O)c1 (stereo not drawn) | 17.7
CN(C)/C=N/N(C)c1ncccc1[N+](=O)[O-] | 16.1
CCNC(=S)NS(=O)(=O)c1ccc(C)cc1 | -6.57
COc1ccc(NS(=O)(=O)c2cc(NC(=O)CC3CCCC3)ccc2N2CCOCC2)cc1 | -3.69
Cc1ccc(NC(=O)C(c2ccccc2)N2CCN(CC(=O)N3CCOCC3)CC2)cc1 (stereo not drawn) | -43
CCCNC(=S)Nc1ccc(CC(=O)OC)cc1 | 3.54
